The values that follow are results of earlier work, collected in EP4046639A1, “PREVENTION OF PULMONARY VASCULAR LEAK IN COVID-19” (priority 2021, dated 2022).

In the series the test system is SARS-CoV-2.

For `Cc1ccc(NC(=O)c2ccc(CN3CCN(C)CC3)cc2)cc1Nc1nccc(-c2cccnc2)n1` [Imatinib, 4-[(4-methylpiperazin-1-yl)methyl]-N-[4-methyl-3-[(4-pyridin-3-ylpyrimidin-2-yl)amino]phenyl]benzamide], the “SARS-CoV-2 infection and replication” value is “no effect”.
Consider `O=C(Nc1ccc(OC(F)(F)Cl)cc1)c1cnc(N2CC[C@@H](O)C2)c(-c2ccn[nH]2)c1` [asciminib, N-[4-[chloro(difluoro)methoxy]phenyl] -6-[(3R)-3-hydroxypyrrolidin-1-yl]-5-(1H-pyrazol-5-yl)pyridine-3-carboxamide], for which the “SARS-CoV-2 infection and replication” value is recorded as “no effect”.
